Measured values as given in article PMC4336329 (PLoS ONE, 2015).
About 2,200 (0.71%) of roughly 310,000 compounds showed an effect of 50% or more. Effects have a minus sign here. This is one part of the list. Where a SMILES comes first, the peptide text is derived from it. The star is where a group is joined. Cbz = O=C(OCc1ccccc1)*

Molecular target: human ether-à-go-go-related gene (hERG) potassium channel (human, UniProt Q12809)
Experiment: primary screen, population patch clamp on CHO cells stably expressing hERG

Sequence of human ether-à-go-go-related gene (hERG) potassium channel (Q12809 whole entry, looked up): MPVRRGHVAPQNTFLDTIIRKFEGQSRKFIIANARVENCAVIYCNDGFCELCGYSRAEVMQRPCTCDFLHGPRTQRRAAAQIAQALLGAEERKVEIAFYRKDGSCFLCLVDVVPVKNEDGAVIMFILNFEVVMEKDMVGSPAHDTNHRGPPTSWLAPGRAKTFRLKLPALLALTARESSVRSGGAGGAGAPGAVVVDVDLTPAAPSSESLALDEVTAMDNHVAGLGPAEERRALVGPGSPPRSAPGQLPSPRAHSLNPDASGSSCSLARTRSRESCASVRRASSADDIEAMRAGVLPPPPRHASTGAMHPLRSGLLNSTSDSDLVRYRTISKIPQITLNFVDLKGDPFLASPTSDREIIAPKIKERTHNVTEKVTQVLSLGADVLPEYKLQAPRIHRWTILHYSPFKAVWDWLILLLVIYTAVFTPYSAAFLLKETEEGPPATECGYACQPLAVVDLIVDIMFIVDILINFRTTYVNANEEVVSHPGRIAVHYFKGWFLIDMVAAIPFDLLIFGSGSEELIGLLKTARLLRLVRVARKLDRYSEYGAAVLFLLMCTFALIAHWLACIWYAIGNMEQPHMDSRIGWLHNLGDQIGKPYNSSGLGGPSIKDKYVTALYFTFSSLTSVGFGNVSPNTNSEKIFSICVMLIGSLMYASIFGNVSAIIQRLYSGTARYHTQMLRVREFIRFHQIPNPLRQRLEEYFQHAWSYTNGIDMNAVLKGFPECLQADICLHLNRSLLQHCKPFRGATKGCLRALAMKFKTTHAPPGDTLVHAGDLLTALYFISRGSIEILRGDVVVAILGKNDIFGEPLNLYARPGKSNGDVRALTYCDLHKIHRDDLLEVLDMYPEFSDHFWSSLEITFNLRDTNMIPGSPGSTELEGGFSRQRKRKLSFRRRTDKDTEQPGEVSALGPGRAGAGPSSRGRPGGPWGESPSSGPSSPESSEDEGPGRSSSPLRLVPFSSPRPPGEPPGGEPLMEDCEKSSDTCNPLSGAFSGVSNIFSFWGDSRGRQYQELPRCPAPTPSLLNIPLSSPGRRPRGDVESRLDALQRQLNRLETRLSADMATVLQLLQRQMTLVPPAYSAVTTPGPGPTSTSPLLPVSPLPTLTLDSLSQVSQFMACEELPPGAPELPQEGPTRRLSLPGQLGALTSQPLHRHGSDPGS

Compound	hERG current change (%, negative = inhibition) at 1uM
Cc1ccc(S(=O)(=O)N2CCC(C(=O)OC(C)C(=O)N(C)c3ccccc3)CC2)cc1C (centres unmarked)	7.92%
O=C(NCC(c1cccnc1)N1CCN(c2ccc(F)cc2)CC1)c1ccc2c(c1)OCO2 (centres unmarked)	-25%
CCOc1ccc(/C=N/NC(=S)NC2CC3C=CC2C3)cc1 (centres unmarked)	13.2%
C(=N\Nc1nc(-c2ccccc2)cs1)/c1cccs1	12.7%
Cc1ccc(F)cc1NC(=O)CSCc1nc2sc(C)c(C)c2c(=O)[nH]1	5.22%
O=C(NCCC1=CCCCC1)C(=O)NCC1OCCCN1S(=O)(=O)c1cc(F)ccc1F (centres unmarked)	5.85%
COc1ccccc1NC(=O)c1ccc(NC(=O)CN2CCCC2)cc1	-5.47%
COc1cc(CNCCN2CCOCC2)ccc1OCc1ccc(Cl)cc1Cl.Cl	-26%
O=C(c1cccs1)N1CCC(c2nc3c(nnn3Cc3c(Cl)cccc3Cl)c(=O)[nH]2)CC1	6.3%
CCN1CCN(C(=O)c2cn(CCOC)c(=O)c3c2c2ccccc2n3C)CC1	13.4%
COC(=O)c1ccc(NC(=O)c2ccc3c(c2)C(=O)N(Cc2cccnc2)C3=O)cc1	-5.89%
COC(=O)c1cc(S(=O)(=O)NCc2ccccc2)cn1C	10.6%
Cn1cccc1CC(=O)NNC(=S)Nc1ccccc1Cl	8.52%
CCc1cc2c3c(c(=O)oc2cc1OC(C)C(=O)O)CCCC3 (centres unmarked)	13.5%
C/C(=N\NC(=O)CNc1cccc(C(F)(F)F)c1)c1cccc(Br)c1	5.75%
O=C(N[C@@H](Cc1ccccc1)c1nc2ccccc2[nH]1)c1cc([N+](=O)[O-])ccc1Cl	5%
O=S(=O)(c1ccccc1)N1N=C(c2ccccc2)CC1c1ccccc1 (centres unmarked)	5.41%
CS(=O)c1ccc(-n2c(=O)n(Cc3ccccc3)c(=O)c3[nH]cnc32)cc1 (centres unmarked)	14.1%
COC(=O)C1(C(O)C(=O)c2ccc(C)cc2C)CCCCC1 (centres unmarked)	1.23%
Cc1ccc([N+](=O)[O-])cc1NC(=O)CSc1nnc(C)n1CC1CCCO1 (centres unmarked)	11.2%
COC(=O)c1cc(NC(=O)c2cccc(C(F)(F)F)c2)c(=O)oc1C/C=N/OCc1cccc(Cl)c1Cl	13%
O=C(NCCc1ccccc1)C(=O)NCCC1CCCCN1S(=O)(=O)c1ccccc1 (centres unmarked)	10.9%

Compound	hERG current change (%, negative = inhibition) at 1uM
O=C(CCNC(=O)c1ccccc1Cl)Nc1nc(-c2ccc3ccccc3c2)cs1	-0.833%
N/C(=N\OC(=O)c1cc(-c2ccccc2)nc2ccccc12)c1cccnc1	11.7%
CCSc1nnc(NC(=O)C2CCN(S(=O)(=O)c3c(C)c(C)cc(C)c3C)CC2)s1	8.42%
CCCc1cc(C(=O)N2CCCC(N3CCN(c4ccc(F)cc4)CC3)C2)no1 (centres unmarked)	-74.1%
Cc1nc2ccccc2c2oc(C(=O)N3CCN(C4CCCCC4)CC3)cc12	-34%
O=C(Nc1cc(Cl)ccc1-n1cncn1)c1cccs1	-1.35%
CCOC(=O)CC1=CC(=O)Nc2ccccc2N1	-2.17%
COc1ccc(CCNC(=O)CC(NC(=O)c2ccccc2Cl)c2ccccc2)cc1 (centres unmarked)	14.5%
Cc1cccc(N2CCC(N=CN(C)C)=N2)c1	7.38%
Cc1nc(-c2ccc(S(=O)(=O)N3CCN(C(c4ccccc4)c4ccccc4)CC3)s2)cs1	6.73%
Fc1ccc(OCc2nc(-c3cccs3)no2)cc1	10.3%
COC(=O)C1=C(NC(=O)c2ccccc2C)CCS1	12%
CC(NC(=O)CN(c1ccc(F)cc1)S(C)(=O)=O)c1ccccc1 (centres unmarked)	12%
O=C(COC(=O)c1nc(Cl)ccc1Cl)NC(=O)c1ccccc1	-0.711%
O=C1c2ccccc2C2(c3ccccc3)NCCCN12 (centres unmarked)	14%
COc1ccccc1-n1cnnc1SCC(=O)N1CC(=O)Nc2ccccc21	1.99%
CCN(CC(=O)NCc1ccc(F)cc1)C(=O)C(C)Oc1cccc(Cl)c1 (centres unmarked)	-18.1%
O=C(O)C1CCCCC1C(=O)Nc1ccc(F)cc1F (centres unmarked)	3.17%
C#CCN(C(=O)c1cc(COc2ccc(C)c(C)c2)on1)C1CCCCC1	11.2%
CCOC(=O)c1[nH]c2ccccc2c1NC(=O)C1CCCC1	14.3%
CCOc1ccc(NC(=S)N(CCN2CCOCC2)Cc2cc3cc4c(cc3[nH]c2=O)OCO4)cc1	-8.71%
O=C1CCCN1c1ccc(S(=O)(=O)O)cc1.c1nc[nH]n1	10.7%

Compound	hERG current change (%, negative = inhibition) at 1uM
Cc1nccn1CCCNCc1c(C(=O)N2CCCCCCC2)nc2ccc(Cl)cn12	-8.44%
N#CC1=C(Nc2ccccc2Cl)SC(c2ccccc2O)NC1=O (centres unmarked)	14.1%
COc1ccc(CC(=O)Nc2ccccc2NC(=O)c2ccco2)cc1OC	0.804%
CCC(Oc1ccc2c(c1)C(=O)CC(C)(C)O2)C(=O)NCCN1CCCCCC1.O=C(O)C(=O)O (centres unmarked)	-9.15%
O=C(CN1C(=O)NC(Cc2c[nH]c3ccccc23)C1=O)Nc1cccc(S(=O)(=O)N2CCCCCC2)c1 (centres unmarked)	11%
O=C(CCc1ccccc1Cl)NC1CCCN(c2ccc(C(F)(F)F)cn2)C1 (centres unmarked)	25.1%
O=C(CCC1COc2ccccc2O1)Nc1ncccc1O (centres unmarked)	7.84%
COc1ccc(C(C)=O)cc1CN1C(=O)NC(CC(C)C)C1=O (centres unmarked)	9.56%
COC(=O)c1ccc(C)c(NC(=O)Cc2coc3cc(OC)ccc23)c1	2.53%
O=C(/C=C/c1cccc(C(F)(F)F)c1)N1CCN(c2ccccn2)CC1	7.71%
CCOc1ccc2oc(C(=O)NC3CCN(Cc4ccccc4)CC3)c(C)c2c1.Cl	-5.6%
CC(=O)N1CCc2cc(C(=O)CN3CCN(c4ccccc4F)CC3)ccc21	5.36%
COc1ccc(C(CCN)c2ccc3c(c2)OCO3)cc1 (centres unmarked)	13.6%
O=C(CSc1nc2ccccc2c(=O)n1-c1ccc(F)cc1F)Nc1ccc(N2CCOCC2)cc1	-6.45%
COc1ccc(C)cc1Nc1nc(N)c2cc(OC)c(OC)cc2n1	4.23%
Cc1cccc(OCC(=O)NCc2nnc3ccc(C(F)(F)F)cn23)c1C	4.28%
O=C(c1ccc2c(c1)OCO2)N1CCC2(CC1)Oc1ccc(F)cc1C(=O)C21CC(c2ccc(Cl)cc2)=NO1 (centres unmarked)	7.01%
COC(=O)c1cccc(N2CCCC2=O)c1	15.9%
CCOC(=O)C1(CCc2ccccc2)CCN(C(=O)Cc2nonc2C)CC1	4.88%
CSCCCNC(=S)Nc1cccc(S(=O)(=O)NC2=NCCC2)c1	0.701%
Cc1nc2ccc(-c3nc4ccccc4[nH]3)cc2[nH]1	8.32%
CCN1C(=NCCCCO)N[C@@H](c2cccc(F)c2)C(C(=O)OC)=C1C	9.87%

Compound	hERG current change (%, negative = inhibition) at 1uM
CCOC(=O)Cc1csc(NC(=O)c2cnc3scc(C)n3c2=O)n1	16%
CC(C)C(NC(=O)C(Cc1ccccc1)NC(=O)OCc1ccccc1)C(=O)O (stereo not drawn) (Cbz-Phe-Val-OH; configuration not given here)	18.2%
Cc1nn(C(C)C(=O)NCc2ccccc2F)c(=O)c2nn(-c3ccccc3)c(C)c12 (centres unmarked)	19.7%
O=C(O)c1ccccc1C(=O)Nc1ccc(Br)c(C(F)(F)F)c1	2.61%
CN1CCN(CC#CCC(O)(c2ccccc2)c2ccccc2)CC1.Cl	14.4%
CC(CC(=O)Nc1ccc(F)cc1F)S(=O)(=O)c1ccc2c(c1)NC(=O)CO2 (centres unmarked)	9.86%
Cc1ccccc1SC1CCN(Cc2nc(C3CC3)no2)CC1	-1.23%
COc1ccc(C2N=C(N)N=C(N)N2c2ccc(C)cc2)cc1.Cl (centres unmarked)	4.38%
CCOC(=O)CNC(=O)N1CCCC(CNS(=O)(=O)c2cccs2)C1 (centres unmarked)	23.3%
CCN(CC)CC.CN1C=CC=C/C1=C1\SC(=S)N(CC(=O)O)C1=O	12.5%
O=C(Nc1cccc2ccccc12)NC1CCCc2ccccc21 (centres unmarked)	9.99%
COc1cc(O)c(C(CC(=O)N2CCOCC2)c2ccc(N(C)C)cc2)c(OC)c1 (centres unmarked)	18%
Cc1ccc(C(=O)CSc2cc(C)[nH]c(=O)n2)cc1	20.4%
O=C(Nc1cccc([N+](=O)[O-])c1)c1ccc2nsnc2c1	-1.33%
O=C(c1ccc(S(=O)(=O)N2CCc3ccccc3C2)cc1)N1CCCCC1	4.45%
COc1cc(/C=C\C(=O)OCn2nnc3ccccc3c2=O)cc(OC)c1OC	0.354%
Cn1cccc1Cc1nnc(SCC(=O)N2CCCCCC2)n1-c1ccc(F)cc1	6.19%
COCCCNC(=O)C1CCN(c2nc(C)cc(C)n2)CC1	10.8%
O=C(c1ccc(O)cc1)c1ccc(Cl)cc1	-3.35%
COc1ccccc1/C=C1\Oc2cc(OC(=O)N3CCOCC3)ccc2C1=O	11.4%
